± gives the uncertainty stated by the source. Whole data set: some 9,900 compounds, median “viability index relative to DMSO control” near 1, cut for the lowest 2% near 0.85. The list shows a part of the results.
system: Plasmodium falciparum NF54 stage V gametocytes; test: viability index relative to DMSO control (fraction); higher = less gametocyte killing; settings: 2.5 µM, library set: Broad Institute DOS, incubation time: 72 h
In short: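 P. falciparum NF54 stage V gametocytes (serum-free medium, 0.75% gametocytemia, 1.25% hematocrit) were exposed to compound at 2.5 µM for 72 hr at 37°C under low oxygen, then stained with MitoTracker Red CMXRos and saponin for one to two hours. Red particles of 20–70 µm2 in one field per well were counted, and the viability index is that count scaled to the plate mean of solvent-only wells.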

SMILES | viability index
COCC(=O)Nc1ccc2c(c1)[C@H]1C[C@@H](CC(=O)N[C@H](C)c3ccccc3)O[C@H](CO)[C@H]1O2 | 1.02 ± 0.12
CCCN(C)C[C@H]1Oc2cc(/C=C/c3ccccc3)ccc2S(=O)(=O)N([C@@H](C)CO)C[C@H]1C | 1.19 ± 0.12
O=C(C1CCCCC1)N1CC2(C1)[C@@H](c1ccccc1)[C@H](CO)N2C(=O)c1cccnc1 | 1.04 ± 0.13
O=C(c1cnccn1)N1CC(=O)N2[C@H](C1)[C@@H](c1ccc(/C=C/c3ccccc3)cc1)[C@@H]2CO | 1.14 ± 0.016
CO[C@@H]1CN(C)C(=O)c2cc(NC(=O)CC(F)(F)F)ccc2OC[C@@H](C)N(CC2CC2)C[C@@H]1C | 0.995 ± 0.057
O=C(Nc1ccc(C(F)(F)F)cc1)N1[C@@H]2CNC[C@H]1[C@@H]2c1ccc(-c2ccccc2F)cc1 | 1.07 ± 0.086
COc1ccc(NC(=O)N2C[C@H](O)COC[C@@H]3O[C@H](CC(=O)N4CCCCC4)CC[C@H]32)cc1 | 1.07 ± 0.026
O=C(c1cccc(F)c1)N1CCCCN2[C@H](CO)[C@@H](c3ccc(C#CC4(O)CCCC4)cc3)[C@@H]2C1 | 1.04 ± 0.018
COc1ccc2c3c([nH]c2c1)[C@@H](CO)N(C[C@]31CCN(Cc2nccs2)CC1)S(=O)(=O)c1ccc(C)cc1 | 1.02 ± 0.062
O=C(c1ccccc1)N1CC(=O)N2[C@H](CO)[C@H](c3ccc(-c4ccccc4)cc3)[C@@H]2C1 | 1.02 ± 0.066
C[C@@H]1CN([C@H](C)CO)C(=O)c2cc(-c3ccncc3)cnc2O[C@@H]1CN(C)C(=O)CN1CCOCC1 | 0.935 ± 0.045
Cc1ccc(S(=O)(=O)NCC[C@@H]2CC[C@@H](NC(=O)c3cccnc3)[C@@H](CO)O2)cc1 | 1.23 ± 0.13
COc1ccccc1NC(=O)N1CC(=O)N2[C@H](C1)[C@H](c1ccc(C#CC(C)C)cc1)[C@@H]2CO | 1.01 ± 0.037
Cc1noc(C)c1NC(=O)N(C)C[C@@H]1OCCCC[C@@H](C)Oc2ccc(NC(=O)Nc3ccc(C(F)(F)F)cc3)cc2C(=O)N([C@H](C)CO)C[C@@H]1C | 1.06 ± 0.07
COc1ccc(CNC(=O)N(C)C[C@@H]2OCc3ccccc3-c3c(n(C)c4ccccc34)C(=O)N([C@@H](C)CO)C[C@H]2C)cc1 | 0.954 ± 0.062
Cc1ccc(S(=O)(=O)N2C[C@H](O)COC[C@H]3O[C@@H](CC(=O)NCc4ccc5c(c4)OCO5)CC[C@@H]32)cc1 | 1.04 ± 0.05
CN(C)CC(=O)N[C@@H]1CC[C@@H](CCNC(=O)C2CCC2)O[C@@H]1CO | 1.14 ± 0.15
CO[C@@H](CN(C)C(=O)c1cc(Cl)cc(Cl)c1)[C@H](C)CN(C(=O)Nc1ccc(F)cc1)[C@H](C)CO | 1.04 ± 0.18
C/C=C/c1ccc([C@H]2[C@@H](CO)N3CCCCN(S(=O)(=O)c4ccc(OC)cc4)C[C@@H]23)cc1 | 0.972 ± 0.078

Source: the supplement of paper PMC4723716
